This is one part of the list.
Tests used:
Assay in all cases: glycan array binding signal (z-score within array); higher = stronger binding
Conditions in all cases: glycan notation: IUPAC condensed, linker removed
[1] = target: Neu5Ac(a2-6)Gal(b1-4)GlcNAc(b1-2)Man(a1-3)[Man(a1-6)]Man(b1-4)GlcNAc(b1-4)GlcNAc
Procedure, shortened: (§1)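 Arrays were curated from the Consortium for Functional Glycomics database, 3228 in total, and kept only where the protein sequence was available. Binding is expressed as a within-array Z-score. This score was averaged across arrays of the same protein sequence at different concentrations or buffers and across linkers, and negative values can be read as non-binding.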

[2] = target: Neu5Ac(a2-6)Gal(b1-4)GlcNAc(b1-2)Man(a1-3)[Neu5Ac(a2-3)Gal(b1-4)GlcNAc(b1-2)Man(a1-6)]Man(b1-4)GlcNAc(b1-4)GlcNAc
Procedure, shortened: as §1

[3] = target: Neu5Ac(a2-6)Gal(b1-4)GlcNAc(b1-2)Man(a1-3)[Neu5Ac(a2-6)Gal(b1-4)GlcNAc(b1-2)Man(a1-6)]Man(b1-4)GlcNAc(b1-4)GlcNAc
Procedure, shortened: as §1

[4] = target: Neu5Ac(a2-6)Gal(b1-4)GlcNAc(b1-2)Man(a1-3)[Neu5Ac(a2-6)Gal(b1-4)GlcNAc(b1-2)Man(a1-6)]Man(b1-4)GlcNAc(b1-4)[Fuc(a1-6)]GlcNAc
Procedure, shortened: as §1

[5] = target: Neu5Ac(a2-6)Gal(b1-4)GlcNAc(b1-2)Man(a1-6)Man(b1-4)GlcNAc(b1-4)GlcNAc
Procedure, shortened: as §1

[6] = target: Neu5Ac(a2-6)Gal(b1-4)GlcNAc(b1-2)Man(a1-6)[Gal(b1-4)GlcNAc(b1-2)Man(a1-3)]Man(b1-4)GlcNAc(b1-4)GlcNAc
Procedure, shortened: as §1

[7] = target: Neu5Ac(a2-6)Gal(b1-4)GlcNAc(b1-2)Man(a1-6)[GlcNAc(b1-2)Man(a1-3)]Man(b1-4)GlcNAc(b1-4)GlcNAc
Procedure, shortened: as §1

[8] = target: Neu5Ac(a2-6)Gal(b1-4)GlcNAc(b1-2)Man(a1-6)[Man(a1-3)]Man(b1-4)GlcNAc(b1-4)GlcNAc
Procedure, shortened: as §1

[9] = target: Neu5Ac(a2-6)Gal(b1-4)GlcNAc(b1-2)[Neu5Ac(a2-6)Gal(b1-4)GlcNAc(b1-4)]Man(a1-3)[GlcNAc(b1-4)][Neu5Ac(a2-6)Gal(b1-4)GlcNAc(b1-2)[Neu5Ac(a2-6)Gal(b1-4)GlcNAc(b1-6)]Man(a1-6)]Man(b1-4)GlcNAc(b1-4)GlcNAc
Procedure, shortened: as §1

[10] = target: Neu5Ac(a2-6)Gal(b1-4)GlcNAc(b1-2)[Neu5Ac(a2-6)Gal(b1-4)GlcNAc(b1-4)]Man(a1-3)[GlcNAc(b1-4)][Neu5Ac(a2-6)Gal(b1-4)GlcNAc(b1-4)Man(a1-6)]Man(b1-4)GlcNAc(b1-4)GlcNAc
Procedure, shortened: as §1

[11] = target: Neu5Ac(a2-6)Gal(b1-4)GlcNAc(b1-2)[Neu5Ac(a2-6)Gal(b1-4)GlcNAc(b1-6)]Man(a1-6)[Neu5Ac(a2-6)Gal(b1-4)GlcNAc(b1-2)Man(a1-3)][GlcNAc(b1-4)]Man(b1-4)GlcNAc(b1-4)GlcNAc
Procedure, shortened: as §1

[12] = target: Neu5Ac(a2-6)Gal(b1-4)GlcNAc(b1-3)Gal(b1-3)GlcNAc
Procedure, shortened: as §1

[13] = target: Neu5Ac(a2-6)Gal(b1-4)GlcNAc(b1-3)Gal(b1-4)GlcNAc
Procedure, shortened: as §1

[14] = target: Neu5Ac(a2-6)Gal(b1-4)GlcNAc(b1-3)Gal(b1-4)GlcNAc(b1-2)Man(a1-3)[Neu5Ac(a2-6)Gal(b1-4)GlcNAc(b1-3)Gal(b1-4)GlcNAc(b1-2)Man(a1-6)]GalNAc
Procedure, shortened: as §1

[15] = target: Neu5Ac(a2-6)Gal(b1-4)GlcNAc(b1-3)Gal(b1-4)GlcNAc(b1-3)Gal(b1-4)GlcNAc
Procedure, shortened: as §1

[16] = target: Neu5Ac(a2-6)Gal(b1-4)GlcNAc(b1-3)Gal(b1-4)GlcNAc(b1-3)Gal(b1-4)GlcNAc(b1-2)Man(a1-3)[Neu5Ac(a2-6)Gal(b1-4)GlcNAc(b1-3)Gal(b1-4)GlcNAc(b1-3)Gal(b1-4)GlcNAc(b1-2)Man(a1-6)]GalNAc
Procedure, shortened: as §1

[17] = target: Neu5Ac(a2-6)Gal(b1-4)GlcNAc(b1-3)Gal(b1-4)GlcNAc(b1-3)GalNAc
Procedure, shortened: as §1

[18] = target: Neu5Ac(a2-6)Gal(b1-4)GlcNAc(b1-3)Gal(b1-4)GlcNAc(b1-3)[Neu5Ac(a2-6)Gal(b1-4)GlcNAc(b1-3)Gal(b1-4)GlcNAc(b1-6)]GalNAc
Procedure, shortened: as §1

[19] = target: Neu5Ac(a2-6)Gal(b1-4)GlcNAc(b1-3)Gal(b1-4)GlcNAc(b1-6)[Gal(b1-3)]GalNAc
Procedure, shortened: as §1

[20] = target: Neu5Ac(a2-6)Gal(b1-4)GlcNAc(b1-3)Gal(b1-4)[Fuc(a1-3)]GlcNAc(b1-3)Gal(b1-4)[Fuc(a1-3)]GlcNAc
Procedure, shortened: as §1

[21] = target: Neu5Ac(a2-6)Gal(b1-4)GlcNAc(b1-3)GalNAc
Procedure, shortened: as §1

[22] = target: Neu5Ac(a2-6)Gal(b1-4)GlcNAc(b1-3)[Neu5Ac(a2-6)Gal(b1-4)GlcNAc(b1-6)]GalNAc
Procedure, shortened: as §1

[23] = target: Neu5Ac(a2-6)Gal(b1-4)GlcNAc(b1-6)GalNAc
Procedure, shortened: as §1

[24] = target: Neu5Ac(a2-6)Gal(b1-4)GlcNAc(b1-6)[Gal(b1-3)GlcNAc(b1-3)]Gal(b1-4)Glc
Procedure, shortened: as §1

[25] = target: Neu5Ac(a2-6)Gal(b1-4)GlcNAc(b1-6)[Gal(b1-3)]GalNAc
Procedure, shortened: as §1

[26] = target: Neu5Ac(a2-6)Gal(b1-4)GlcNAc6S
Procedure, shortened: as §1

Neu5Ac(a2-6)GalNAc = target: Neu5Ac(a2-6)GalNAc
Procedure, shortened: as §1

[27] = target: Neu5Ac(a2-6)GalNAc(b1-4)GlcNAc
Procedure, shortened: as §1

[28] = target: Neu5Ac(a2-6)GalNAc(b1-4)GlcNAc6S
Procedure, shortened: as §1

[29] = target: Neu5Ac(a2-6)GlcNAc(b1-4)GlcNAc
Procedure, shortened: as §1

[30] = target: Neu5Ac(a2-6)GlcNAc(b1-4)GlcNAc(b1-4)GlcNAc
Procedure, shortened: as §1

B1: PX9961H-bth-557-24-557 (Bacteroides thetaiotaomicron) (protein)
chain: EETRTEVEKKNYMNNAEEAKDVLLGVYRTNTLDAMYGYYLSILFNLGTDISQVEGSGNENFRIIPTNSFPTTQSEVQQTWAALYTGIYRANDFLERISNKIGSYTTTDKKLATLYIAEARALRGMFYFELVRRFGNVVLMTSTQMSNQNPATYVQSAPEKVYEYIEDDLLYACDILPYATDDQYRESNDYRFSKGAALGLLTKVYATWAGYPVKDESKWEAAAKTARILVESGKHGLLKDYEQLWKNTCNGTWDPTESLIEISFYSPTVSGNSDPVGRIGKWNGVKTTAIAGVRGSCAANVKVVHTFVLDWREDVSDIRRDLSIANYQYTDTKKSLWVAGASDTDESAAEKDADPTKAQKNKQNYTPAKWDIQKYVTTNSFINNDKSNVNWYFLRYADVLLLYAEALNEWKHGPDAEAYNAINAVRRRGYGNPSNTSACDLPQGLDETSFREAVRKERSYELSFEGHRRQDLIRWGIYYKTVQATAKELGYWWEGTGSPNYSVATYTEEGKHELFPIPQRDMDLCIQFNQNPKW
[1]
  glycan array binding signal (z-score): -0.405
[2]
  glycan array binding signal (z-score): -0.354
[3]
  glycan array binding signal (z-score): -0.217
[4]
  glycan array binding signal (z-score): -0.319
[5]
  glycan array binding signal (z-score): -0.491
[6]
  glycan array binding signal (z-score): -0.596
[7]
  glycan array binding signal (z-score): -0.061
[8]
  glycan array binding signal (z-score): -0.077
[9]
  glycan array binding signal (z-score): -0.327
[10]
  glycan array binding signal (z-score): -0.286
[11]
  glycan array binding signal (z-score): -0.503
[12]
  glycan array binding signal (z-score): -0.166
[13]
  glycan array binding signal (z-score): -0.41
[14]
  glycan array binding signal (z-score): 0.218
[15]
  glycan array binding signal (z-score): -0.409
[16]
  glycan array binding signal (z-score): 1.55
[17]
  glycan array binding signal (z-score): -0.503
[18]
  glycan array binding signal (z-score): -0.661
[19]
  glycan array binding signal (z-score): -0.46
[20]
  glycan array binding signal (z-score): -0.443
[21]
  glycan array binding signal (z-score): -0.41
[22]
  glycan array binding signal (z-score): -0.565
[23]
  glycan array binding signal (z-score): -0.515
[24]
  glycan array binding signal (z-score): -0.544
[25]
  glycan array binding signal (z-score): 0.001
[26]
  glycan array binding signal (z-score): -0.773
Neu5Ac(a2-6)GalNAc
  glycan array binding signal (z-score): 0.031
[27]
  glycan array binding signal (z-score): -0.394
[28]
  glycan array binding signal (z-score): -0.466
[29]
  glycan array binding signal (z-score): -0.469
[30]
  glycan array binding signal (z-score): 0.201

Reference: the supplement of paper PMC8728848
